Results as given in PubChem BioAssay AID463173 (ICCB-Longwood Screening Facility, Harvard Medical School, 2010).
The campaign covered roughly 52,000 compounds. About 4,300 (8.3%) were called active. No stated cut-off is given here; in the data, active means survival mostly below about 52% (no sharp cut-off); inactive means mostly above about 56%. Some of the results follow.

These molecules were tested on DeltatarO mutant (assay: S. aureus survival, RN4220 and DeltatarO strains – OD600, teichoic acid synthesis inhibitors, primary screen (AID 463173)). Conditions: S. aureus RN4220 wild type/DeltatarO growth, OD600, 18 h, stronger effect = lower value, screened at 18.75 µg/mL (by protocol).

Compound | survival
O=C(c1ccc2c(c1)N(Cc1cccc(Cl)c1)C(=O)c1ccccc1S2=O)N1CCN(c2cccc(C(F)(F)F)c2)CC1 (stereo not drawn) | inactive: 92%
O=C(N=Nc1[nH]c2ccccc2c1O)c1ccc(Cl)cc1 | inactive: 85%
Cc1ccc(N(C)C(=O)CN2C(=O)CCc3cc(S(=O)(=O)N4CCOCC4)ccc32)cc1 | inactive: 67%
COc1ccccc1CNC(=O)CCn1cnc2ccccc2c1=O | active: -5%
O=C(NC1CC(=O)N(c2ccc(F)cc2)C1)c1ccc2c(c1)OCO2 (stereo not drawn) | inactive: 75%
O=C(Cn1c(=O)n2nc(-c3cccc(F)c3)nc2c2ccccc21)N1CCN(c2ccc(F)cc2)CC1 | inactive: 90%
Cn1c(=O)c2c(ncn2Cc2ccc(Cl)cc2)n(C)c1=O | inactive: 63%
CCN1CCN(C(c2ccccc2Cl)c2c(O)cc(C)n(Cc3ccco3)c2=O)CC1 (stereo not drawn) | inactive: 101%
CCN(c1ccccc1)c1nnc(NC(=O)Nc2ccc(Br)c(C)c2)s1 | inactive: 89%
O=C(c1ccc2c(Cl)c3c(nc2c1)CCCC3)N1CCN(c2cccc(C(F)(F)F)c2)CC1 | inactive: 64%
O=C(CSc1nccn1Cc1ccco1)Nc1cc(C(F)(F)F)ccc1Cl | inactive: 99%
COc1cc(S(=O)(=O)N(CCc2ccccc2)Cc2cccs2)ccc1-n1cnnn1 | inactive: 91%
O=C(CN1C(=O)COc2ccc(S(=O)(=O)N3CCCCCC3)cc21)N1CCN(c2ccccc2F)CC1 | inactive: 81%
CCOc1ccc(CNC(=O)CCS(=O)(=O)c2cc3c4c(c2)CCN4C(=O)CC3)cc1OC | inactive: 82%
O=C(CNC(=O)c1ccc(F)cc1)OCc1cc(=O)n2nc(C3CCCCC3)sc2n1 | inactive: 80%
CCOc1cc(CNC(=O)c2ccc3c(c2)N(C)C(=O)C2CCCCN32)ccc1OC (stereo not drawn) | inactive: 69%
CCOc1ccccc1C(=O)NCc1nc2cccnc2n1Cc1ccc(C)cc1 | inactive: 119%
COc1ccc(NC(=O)C2C3C=CC(O3)C2C(=O)NCc2cccnc2)cc1 (stereo not drawn) | inactive: 80%
Cc1ccc(-n2ncc3c(NC4CCCCC4)ncnc32)cc1Cl | inactive: 84%
Cc1ccc(N2CCN(C(=O)c3cnn(-c4ccc(C)c(C)c4)c3C3CCNCC3)CC2)c(C)c1 | inactive: 55%
COc1ccc(CNC(=O)CCCn2nc(C)c3c(C)n(-c4ccc(C)cc4)nc3c2=O)cc1OC | inactive: 74%
CCc1ccc(Nc2sc(C(=O)c3ccc(F)cc3)c(N)c2S(=O)(=O)c2ccccc2)cc1 | inactive: 94%

Compound | survival
Nc1nnc(SCC(=O)NC2CCCCC2)s1 | inactive: 88%
Nc1c(C(=O)NCc2ccc(Cl)cc2)sc2nc(-c3ccc(F)cc3)ccc12 | inactive: 69%
COc1ccc(NCc2nnc(SCC(=O)c3ccc(C)cc3)o2)cc1 | inactive: 85%
COc1ccc(OC)c(NC(=O)CCNS(=O)(=O)c2ccc3c(c2)oc(=O)n3C)c1 | inactive: 83%
COc1ccc2nc(NC(=O)c3cc(=O)c4cc(C)cc(C)c4o3)sc2c1 | inactive: 69%
COc1cc(OC)c(NC(=O)C2CCN(S(=O)(=O)c3ccc4c(c3)oc(=O)n4C)CC2)cc1Cl | inactive: 99%
COc1ccc2c(CNCCc3cccs3)c(C(=O)O)n(Cc3cccc(F)c3)c2c1 | inactive: 76%
CC(C)C(=O)N1CCC(c2nc(-c3ccc(F)cc3)no2)CC1 | inactive: 105%
COc1ccc(CCNC(=O)c2cc3c(=O)oc4ccc(C)cc4c3s2)cc1OC | inactive: 60%
COc1ccc(CC(=O)NC2CCN(CC(=O)c3ccc(F)cc3)CC2)cc1OC | inactive: 108%
CCNC(=O)c1cc2n(n1)CCCN(Cc1ccc(C)cc1)C2=O | inactive: 49%
O=C(C1CCN(c2ncnc3c2nc2n3CCCCC2)CC1)N1CCN(c2ccc(Cl)cc2)CC1 | inactive: 81%
Cc1nn(C(=O)c2cccc(F)c2)c(C)c1S(=O)(=O)N1CCOCC1 | inactive: 84%
Cc1ccc2c(c1)c1c3n2CCN(C(=O)c2ccc(C(F)(F)F)cc2)C3CCC1 (stereo not drawn) | inactive: 44%
Cc1ccccc1-c1nnc(N(C)C(=O)C2CC2)s1 | inactive: 64%
CC1=C(C(=O)OCc2ccc(C)cc2)C(c2cccc(F)c2F)CC(=O)N1 (stereo not drawn) | inactive: 93%
CC(=O)c1cccc(NC(=O)Cn2nc(C(F)(F)F)c3c2CCC3)c1 | inactive: 84%
CC(C)C(=O)Nc1ccc(-c2cn3ccccc3n2)cc1 | inactive: 76%
NC(=O)c1nn2c(C(F)(F)F)cc(-c3ccc(Br)cc3)nc2c1Cl | inactive: 81%
O=C(Cn1c(C(=O)N(Cc2ccco2)CC2CCCO2)cc2sccc21)c1ccccc1 (stereo not drawn) | active: 68%
CSc1nc(=O)c2c(n1C)NC(=O)CC2c1cc(F)cc(F)c1 (stereo not drawn) | inactive: 44%
c1coc(C2Nc3cccc4cccc(c34)N2)c1 | inactive: 74%

Compound | survival
Cc1ccc2nc(Cl)c3cc(C(=O)NCCCN(C)Cc4ccccc4)sc3c2c1 | active: -9%
Cc1ccc(NC(=O)c2c(NC(=O)c3ccccc3Cl)sc3c2CCC3)cc1 | inactive: 160%
COc1ccc(Nc2cc(C(=O)NC3CCCC3)c3ccccc3n2)cc1 | inactive: 90%
COc1ccc(C2C=C(c3ccc(Br)cc3)Nc3nnnn32)c(OC)c1 (stereo not drawn) | inactive: 84%
COc1ccccc1CNc1nc2c(S(=O)(=O)c3ccccc3)nnn2c2ccc(Cl)cc12 | inactive: 64%
O=C(CCSCc1ccc(Cl)cc1)NCc1ccc(F)cc1Cl | inactive: 88%
CS(=O)(=O)N1CCc2cc(C(=O)N3CCN(c4ccccc4F)CC3)ccc21 | inactive: 45%
O=C(CSc1nccn1Cc1ccc(F)cc1)NCc1ccc(F)cc1 | inactive: 71%
COC(=O)/C=c1\sc2nc(N)nn2c1=O | inactive: 90%
Cc1cc(C)c(NC(=O)c2c(C)nn(-c3ccc(F)cc3)c2-n2cccc2)c(C)c1 | inactive: 76%
CN1CCN(C(=O)Cn2ncc3c4ccccc4n(Cc4ccc(Cl)cc4)c3c2=O)CC1 | inactive: 61%
Cc1ccccc1NC(=O)Cn1nnc(C(=O)NCCc2ccccc2)c1N | inactive: 80%
CCc1nn2c(=O)c(S(=O)(=O)Nc3ccc(Br)cc3F)c(C)nc2s1 | inactive: 57%
O=C(NC1CCCCC1)c1ccc(CSc2nc3ccncc3n2Cc2ccc(F)cc2)cc1 | inactive: 61%
CN(C)c1ccc(Nc2nc3ccccc3n3nnnc23)cc1 | inactive: 88%
COc1ccccc1-c1nn2c(=O)cc(CN3CCN(C(=O)/C=C/c4ccccc4)CC3)nc2s1 | inactive: 71%
COc1cccc(CNC(=O)CN2C(=O)N(c3cccc(Cl)c3)S(=O)(=O)c3ccccc32)c1OC | inactive: 72%
COc1ccc(N2CCN(S(=O)(=O)c3ccc(-c4cnc(C5CC5)o4)cc3)CC2)cc1 | inactive: 78%
CC1=C(C(=O)Nc2ccc(C)cc2C)C(c2ccc(Br)cc2)n2ncc(C(=O)Nc3cccc(C)c3)c2N1 (stereo not drawn) | inactive: 128%
COc1ccccc1CNC(=O)CSc1nc(=O)[nH]c2c1CCC2 | inactive: 78%
Cc1ccc(C)c(N(C)C(=O)Cc2c(C(=O)O)[nH]c3ccc(Cl)cc23)c1 | active: 40%
CC(C)(C)CC(C)(C)c1ccc(OCC(=O)Nc2ccc(S(=O)(=O)Nc3ncccn3)cc2)cc1 | inactive: 62%

Compound | survival
CC(=O)Nc1ccc(Oc2nc(C)cc(C)n2)cc1 | inactive: 89%
COc1ccc(C2C(C(=O)Nc3ccc(C)cc3C)=C(C)Nc3nc(SCc4cccc(C)c4)nn32)c(OC)c1 (stereo not drawn) | inactive: 164%
OC(CN1CCNCC1)Cn1c2ccccc2c2ccccc21 (stereo not drawn) | inactive: 84%
Cc1ccccc1Cn1c(=O)n(CC2CCC(C(=O)N3CCOCC3)CC2)c(=O)c2sccc21 (stereo not drawn) | inactive: 82%
Cc1c(Cl)cccc1Nc1nn2c(=O)c3ccc(C(=O)NCCC4=CCCCC4)cc3nc2s1 | inactive: 80%
Cc1cc(C)c(S(=O)(=O)N2CCN(Cc3ccc4c(c3)OCO4)CC2)cc1C | active: 13%
CCN(CC)S(=O)(=O)c1cccc(C(=O)Oc2cccnc2)c1 | inactive: 63%
COc1ccc(S(=O)(=O)c2nnn(-c3ccc(C(C)C)cc3)c2C)cc1 | inactive: 74%
Cc1[nH]c2ccc(-c3nnc(SCC(=O)N4c5ccccc5CCc5ccccc54)o3)cc2c1C | inactive: 89%
CCOc1ccc(NC(=O)Cn2c(=O)n(CCCCC(=O)NCc3ccc4c(c3)OCO4)c(=O)c3ccccc32)cc1 | inactive: 85%
CCN(CC)c1ccc(-n2nc3cc(C)c(NC(=O)c4ccccc4C)cc3n2)c(C)c1 | inactive: 73%
CCc1ccc(S(=O)(=O)NCc2nc3cccnc3n2Cc2cccc(OC)c2)cc1 | inactive: 88%
CCCCCn1c(CNC(=O)c2ccccc2)nc2ccccc21 | inactive: 67%
O=C(CN1C(=O)CSc2ccc(S(=O)(=O)N3CCOCC3)cc21)NCCCN1CCCCC1 | inactive: 94%
Cc1ccc(N(CC(=O)N2CCN(c3ccccc3)CC2)S(=O)(=O)c2c(C)noc2C)cc1 | inactive: 70%
Cc1nc(-c2ccc(F)cc2)sc1CCNC(=O)c1cccs1 | inactive: 129%
CCc1ccc(NC(=O)Cn2c(=O)n(-c3ccccc3C)c(=O)c3c2c2cc(OC)ccc2n3C)cc1 | inactive: 67%
COc1ccc(NC(=O)CSc2nc3ccccc3nc2N2CCCCC2)cc1 | active: 18%
CN1CCN(c2nc3c(S(=O)(=O)c4ccc(Cl)cc4)nnn3c3ccsc23)CC1 | inactive: 39%
CC(=O)Nc1ccc(C)cc1-c1nc2ccccc2n(CC(=O)c2ccc(C)c(C)c2)c1=O | inactive: 68%
O=C(NCCc1csc(-c2ccc(C(F)(F)F)cc2)n1)C(=O)Nc1ccc(F)c(Cl)c1 | inactive: 103%
CCOc1ccccc1NS(=O)(=O)c1ccc(N2CCCCS2(=O)=O)cc1 | inactive: 97%
